Data taken from PubChem BioAssay AID624417 (National Center for Advancing Translational Sciences (NCATS), 2012).
Out of some 410,000 compounds screened, about 6,400 (1.6%) were called active. Inconclusive results, whose numbers are uncertain, are shown with a selection of clear calls. Calls follow the shape of the dose curve; as a rule, active = well fitted inhibition curve with a large enough effect; inconclusive = small, poorly fitted or top-dose-only effect; inactive = no such curve, though single readings can be large or run the other way. A potency beside an inconclusive call is a rough fit, not a confirmed value.

target: Glucagon-like peptide 1 receptor (Homo sapiens) (UniProt P43220); assay: qHTS of GLP-1 Receptor Inverse Agonists (Inhibition Mode); conditions: HEK293 GLP-1R CRE-luciferase, luminescence, 24 h, GLP-1R form is constitutively active; activity change, negative = inhibition: at 38.3 µM (top of the series) unless noted; also: nearly all actives have a fitted effect of over 55% in size
Sequence of UniProt P43220 (P43220 whole entry, looked up): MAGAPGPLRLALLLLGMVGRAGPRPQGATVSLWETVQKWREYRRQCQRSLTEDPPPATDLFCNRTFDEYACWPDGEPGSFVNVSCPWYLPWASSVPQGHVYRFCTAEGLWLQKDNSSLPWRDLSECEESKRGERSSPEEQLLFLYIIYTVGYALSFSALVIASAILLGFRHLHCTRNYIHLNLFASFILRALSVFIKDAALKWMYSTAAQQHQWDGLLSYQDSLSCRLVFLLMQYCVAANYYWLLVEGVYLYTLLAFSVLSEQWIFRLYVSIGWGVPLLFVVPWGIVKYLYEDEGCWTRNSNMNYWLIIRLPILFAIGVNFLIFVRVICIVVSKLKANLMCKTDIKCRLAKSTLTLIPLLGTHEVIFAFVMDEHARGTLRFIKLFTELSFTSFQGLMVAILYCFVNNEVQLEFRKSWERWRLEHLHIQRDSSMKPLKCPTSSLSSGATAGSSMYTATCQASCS
How it was run: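 qHTS in 1536-well format: reporter HEK293 cells expressing constitutive GLP-1R activity in DMEM + 10% Nu serum, 24 hr with compounds at 37 deg C, luminescence read after 12 min with detection reagent.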
% is scaled to controls: 0 for no effect and ±100 for the full control effect; potency is read from the fitted curve at half-maximal effect; tags tell the direction and shape of the fitted curve.

Potency, inconclusive:
CC(C)(C)c1ccc(S(=O)(=O)Nc2ccc(C(O)(C(F)(F)F)C(F)(F)F)cc2)cc1 11.2 µM [inhibitor, partial curve, poor fit]
COc1cccc(C2CC(c3ccccc3)=NN2S(=O)(=O)c2ccccc2)c1OC (centres undefined) 14.1 µM [inhibitor, single point]
CN(Cc1ccccc1)S(=O)(=O)c1ccc(F)c(C(=O)Nc2ccccc2C(F)(F)F)c1 11.2 µM [inhibitor, single point]
CC(C)(C)NC(=O)C(c1ccc(C#N)cc1)n1c(=O)c(-c2ccccc2)nc2ccccc21 (centres undefined) 20 µM [inhibitor, single point]
Cc1ccc2nc(-c3ccncc3)c(Nc3ccccc3C)n2c1 12.6 µM [inhibitor, partial curve, poor fit]
O=C(Nc1cccc(-c2cccc(F)c2)c1)C1CCN(CC2CCOC2)CC1 (centres undefined) 10 µM [inhibitor, partial curve, poor fit]
COc1ccc(C(=O)c2ccc(OC)cc2OC)cc1 5.62 µM [inhibitor, full curve, poor fit]
CCOC(=O)c1cnc2ccccc2c1Nc1ccc2c(c1)OCCO2 10 µM [inhibitor, partial curve, poor fit]
OCCNCCOCCOc1ccccc1-c1ccccc1 12.6 µM [inhibitor, partial curve, poor fit]
O=C(NCCc1ccccc1F)C1CCCN1S(=O)(=O)c1ccc2ccccc2c1 (centres undefined) 11.2 µM [inhibitor, partial curve, poor fit]
C=CCn1c(O)c(N=NC(=S)Nc2ccccc2F)c2ccccc21 0.501 µM [inhibitor, full curve, poor fit]
Cc1cc(C)cc(NC(=O)CN2C(=O)COc3ccc(S(=O)(=O)Nc4ccccc4)cc32)c1 28.2 µM [inhibitor, single point]
CC(C)(C)OC(=O)NCCCC[C@H](NC(=O)c1nc[nH]c1C(=O)NC1CCN(C(=O)OC(C)(C)C)CC1)C(=O)OC(C)(C)C 28.2 µM [inhibitor, single point]
CCN1CCN(Cc2c(O)ccc3oc(C)c(C(=O)Nc4ccc(OC)c(Cl)c4)c23)CC1 31.6 µM [inhibitor, partial curve, poor fit]
CCOc1ccc(S(=O)(=O)N2CCN(C(=O)c3cc(C4CC4)nn3-c3ccccc3)CC2)cc1 11.2 µM [inhibitor, single point]
Oc1ccccc1N1CCN(C(=S)Nc2ccc(SC(F)F)cc2)CC1 28.2 µM [inhibitor, single point]
CN(Cc1cccnc1)Cc1cn(C)nc1-c1ccc(Oc2ccccc2)cc1 12.6 µM [inhibitor, partial curve, poor fit]
Cc1cccc(N2CCN(C(=O)c3nn(C)c4c3CSc3ccccc3-4)CC2C)c1 (centres undefined) 28.2 µM [inhibitor, single point]
CCOC(=O)c1ccc(NC(=O)c2cc(C)nn2-c2ccccc2)cc1 3.98 µM [inhibitor, partial curve, poor fit]
c1ccc(COc2ccc(CN3CCN(c4ccccn4)CC3)cc2)cc1 10 µM [inhibitor, partial curve, poor fit]
CSCCC(NS(=O)(=O)c1ccc2c(c1)oc(=O)n2C)C(=O)N1CCN(c2cc(Cl)ccc2C)CC1 (centres undefined) 28.2 µM [inhibitor, single point]
CCOC(=O)Cc1ccc(Nc2nc(NCc3cccs3)nc3ccsc23)cc1 28.2 µM [inhibitor, single point]
Cc1cc2c(cc3c(SCc4ccc(Cl)cc4)nnc(C)n32)o1 20 µM [inhibitor, single point]
CCN(CCCNC(=O)c1cc2cc3cc(OC)ccc3nc2s1)c1cccc(C)c1 28.2 µM [inhibitor, single point]
CCC(=O)Oc1c(Sc2ccc(Cl)cc2)c(C)nn1C(C)(C)C 11.2 µM [inhibitor, single point]
Cc1noc(C)c1CC(=O)N1CCCC(C(=O)c2ccc(C(C)(C)C)cc2)C1 (centres undefined) 14.1 µM [inhibitor, single point]
COC(=O)[C@]12CCCCC=C1N(Cc1cccc3ccccc13)C(=O)[C@H](CC(=O)NCCc1ccccc1OC)C2 28.2 µM [inhibitor, single point]
NC(=S)N/N=C1\CCSc2ccc(Cl)cc21 7.08 µM [inhibitor, partial curve, poor fit]
O=C(Nc1ccc(C(=O)NCC2CCN(Cc3ccccc3F)CC2)cc1)C1=CSCCO1 10 µM [inhibitor, partial curve, poor fit]
O=C(Nc1cccc(F)c1)C1CCN(C(=O)c2ccccc2Cl)CC1 11.2 µM [inhibitor, single point]
O=C(OCC(=O)C12CC3CC(CC(C3)C1)C2)c1ccc(CO)cc1 28.2 µM [inhibitor, single point]
Cc1ccc(-c2nc3sccn3c2Nc2ccccc2C)cc1 28.2 µM [inhibitor, single point]
C=CCN(c1ccccc1)S(=O)(=O)c1cccc(C(=O)NCC(c2ccc(OC)cc2)N2CCCCC2)c1 (centres undefined) 12.6 µM [inhibitor, single point]
CCN1C(=O)C(C(=O)Nc2ccc(OC)cc2)C2CC1(C)Oc1ccccc12 (centres undefined) 11.2 µM [inhibitor, partial curve, poor fit]
Cc1ccc(C)c(N=Nc2nc3ccccc3n2C)c1 11.2 µM [inhibitor, partial curve, poor fit]
CC1(C(=O)Nc2ccc(Cl)c(Cl)c2)CCN1C(=O)CCC1CCCC1 (centres undefined) 11.2 µM [inhibitor, single point]
CCOc1ccc(N(CC(=O)NCCc2ccc(F)cc2)S(=O)(=O)c2ccccc2)cc1 20 µM [inhibitor, single point]
COc1ccccc1C1CC(c2ccc(NS(C)(=O)=O)cc2)=NN1S(=O)(=O)c1ccccc1 (centres undefined) 2.24 µM [inhibitor, full curve, poor fit]
CCOC(=O)C1=C(N)Oc2cc(O)ccc2C1c1ccccc1 (centres undefined) 20 µM [inhibitor, partial curve, poor fit]
COc1ccccc1-c1cc(C(=O)N2CCCCC2)no1 28.2 µM [inhibitor, single point]
COc1ccc(CNC(=O)CN(c2ccccc2OC)S(=O)(=O)c2ccc(C)cc2)cc1 11.2 µM [inhibitor, single point]
O=S(=O)(NCc1ccccc1)c1ccc(-c2cnc(C3CC3)o2)cc1 2 µM [inhibitor, full curve, poor fit]
O=C(COc1ccc(Cl)cc1[N+](=O)[O-])N1CCCCCC1 31.6 µM [inhibitor, single point]
CCC/C(O)=C1\C(=O)CC(C)(C)CC1=Nc1ccc(OC)cc1 5.01 µM [inhibitor, partial curve]
CN1CCN(Cc2c(O)ccc3c(=O)c(Oc4ccccc4Cl)c(C(F)(F)F)oc23)CC1 7.94 µM [inhibitor, partial curve, poor fit]
CCn1c(=O)c2cc(C(=O)NC3CCCCCC3)sc2c2ccccc21 7.08 µM [inhibitor, partial curve, poor fit]

Activity change, negative = inhibition, inactive:
COc1ccc(CC(=O)NC(C)CCc2ccccc2)cc1OC (centres undefined) -7.91%
Nc1ccc(C(=O)OCc2nc3ccccc3[nH]2)cc1 3.77%
CC1=C(c2ccc(C)cc2)S(=O)(=O)N=C1N1CCN(c2ccccc2)CC1 -5.1%
O=C(COc1ccc2c(c1)oc(=O)c1ccccc12)NCCCN1CCOCC1 119%
CCc1cccc(NC(=O)CNS(=O)(=O)c2ccc3nc(C)sc3c2)c1 -7.31%
CCOC(=O)c1ccccc1NC(=O)CSc1nc2ncccc2o1 4.21%
O=C(CN1CCCCCC1)Nc1ccc(Br)cc1[N+](=O)[O-] -24.9%
CCN(C[C@H]1N[C@@](CC)(C(=O)OC)[C@H]2C(=O)N(C)C(=O)[C@@H]12)S(=O)(=O)c1ccc(OC)cc1 0.0773%
O=C(Nc1ccccc1C(=O)NC1CC1)c1ccccc1F 77.1%
O=C(N=C1SC2CS(=O)(=O)CC2N1c1ccc(F)cc1)C1CC1 (centres undefined) 79.2%
COc1ccc(NC(=O)CSc2oc(-c3ccc(C)cc3)nc2S(=O)(=O)c2ccc(C)cc2)c(OC)c1 3.54%
O=C(Nc1nc2c(Cl)ccc(Cl)c2s1)C1CC1 -6.99%
CC(/C=C1\SC(=S)N(c2ccc(C(=O)O)cc2)C1=O)=C\c1ccccc1 -0.531%
Cc1cccc(C)c1NC(=O)CN -2.14%
Cc1csc(NC(=O)c2cc(=O)[nH]c3ccccc23)n1 10.7%
CCCn1c(N)c(N2CCCCC2)c(=O)n(CC(=O)Nc2ccccc2)c1=O -7.83%
Cc1ccc(NC(=O)N(CCC(=O)O)Cc2ccccc2)cc1 6.32%

Activity change, negative = inhibition, inconclusive:
CCC1CN(C(=O)NCc2ccccc2)c2ccccc2O1 (centres undefined) -76.1% [inhibitor]
